# Measured values: PMC4336329 (PLoS ONE, 2015)
# Screen size: about 310,000 compounds; about 14,000 (4.5%) showed an effect of 50% or more. Effects have a minus sign here. The list shows a part of the results.
# Target: human ether-à-go-go-related gene (hERG) potassium channel (human, UniProt Q12809)
# Assay: primary screen, population patch clamp on CHO cells stably expressing hERG
# 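Further: peak tail current of the secondary pulse compared with the same well before compound.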
# Chain of human ether-à-go-go-related gene (hERG) potassium channel (Q12809 whole entry, looked up): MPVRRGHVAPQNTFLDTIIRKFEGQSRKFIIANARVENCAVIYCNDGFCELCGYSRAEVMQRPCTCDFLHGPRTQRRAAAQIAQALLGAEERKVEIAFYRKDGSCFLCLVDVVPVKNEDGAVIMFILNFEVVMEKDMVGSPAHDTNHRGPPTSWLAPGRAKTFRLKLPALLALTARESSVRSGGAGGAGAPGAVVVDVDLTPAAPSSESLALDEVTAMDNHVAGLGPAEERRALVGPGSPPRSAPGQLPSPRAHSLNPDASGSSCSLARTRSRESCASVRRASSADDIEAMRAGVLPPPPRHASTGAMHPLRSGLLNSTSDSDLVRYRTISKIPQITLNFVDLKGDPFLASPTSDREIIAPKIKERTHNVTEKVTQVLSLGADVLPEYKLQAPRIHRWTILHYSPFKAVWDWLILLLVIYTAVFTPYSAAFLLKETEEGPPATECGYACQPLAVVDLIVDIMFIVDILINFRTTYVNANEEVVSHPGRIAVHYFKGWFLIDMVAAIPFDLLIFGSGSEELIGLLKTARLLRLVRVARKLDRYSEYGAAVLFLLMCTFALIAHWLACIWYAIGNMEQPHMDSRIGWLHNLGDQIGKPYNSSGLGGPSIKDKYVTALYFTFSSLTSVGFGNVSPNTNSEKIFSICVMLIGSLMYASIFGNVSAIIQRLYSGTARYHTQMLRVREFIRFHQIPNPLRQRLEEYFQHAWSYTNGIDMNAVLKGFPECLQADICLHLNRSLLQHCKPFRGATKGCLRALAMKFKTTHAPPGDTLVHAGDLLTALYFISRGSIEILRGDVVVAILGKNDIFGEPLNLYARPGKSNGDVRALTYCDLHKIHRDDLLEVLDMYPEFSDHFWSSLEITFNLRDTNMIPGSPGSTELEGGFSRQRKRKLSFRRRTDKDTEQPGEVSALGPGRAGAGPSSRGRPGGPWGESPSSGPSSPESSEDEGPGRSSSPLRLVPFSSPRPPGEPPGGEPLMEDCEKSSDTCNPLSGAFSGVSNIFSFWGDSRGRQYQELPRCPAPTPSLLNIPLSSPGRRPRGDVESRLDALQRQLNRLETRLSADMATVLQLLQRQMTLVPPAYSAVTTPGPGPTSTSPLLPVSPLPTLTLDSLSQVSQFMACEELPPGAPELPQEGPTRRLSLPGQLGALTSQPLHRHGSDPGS
row,SMILES,"hERG current change (%, negative = inhibition) at 10uM"
1,O=C(O)c1c2c(nc3ccccc13)CCCCC2,15.8%
2,Cc1cccc(-c2noc(CN(C(=O)C34CC5CC(CC(C5)C3)C4)C(C)C)n2)c1,24.1%
3,CC(NC(=O)c1ccc(Br)cc1)c1ccccc1 (centres unmarked),-0.216%
4,CCOc1ccc(CN(C)C(=O)CCN2C(=O)c3ccccc3C2=O)cc1OC,7.88%
5,COc1ccc(CNC(=O)CSc2nnc(C)s2)cc1,3.85%
6,COc1ccccc1NC(=S)NC12CN3CN(CN(C3)C1)C2,28.1%
7,Cc1cc(C)nc(NS(=O)(=O)c2ccc(NC(=O)CN3C(=O)C4CC=CCC4C3=O)cc2)n1 (centres unmarked),10.1%
8,Cn1c(=O)c(Oc2cc(Cl)cc(Cl)c2)nc2ccccc21,3.25%
9,Cc1ccc(Nc2cc(C)nc3nc(C)nn23)c(C)c1,9.08%
10,CC(C)[C@H](NC(=O)c1ccccc1)C(=O)Nc1cccc(S(=O)(=O)N2CCOCC2)c1,-2.22%
11,CCOc1ccccc1N(CC(=O)NCCSc1ccccn1)S(=O)(=O)c1ccccc1,-23.1%
12,O=C(NCc1nc2ccccc2[nH]1)C1=C[C@H](c2coc3ccccc3c2=O)C[C@H](OCCCCO)O1,-50.7%
13,CN1CCC(=C(c2ccc(Cl)cc2)c2ccccn2)CC1.O=C([O-])/C=C\C(=O)[O-],-40.5%
14,CSc1ccc(S(=O)(=O)N2CCC(C(=O)Nc3ccc(C(N)=O)cc3)CC2)cc1,17.5%
15,COc1ccc(-n2nnnc2-c2cn(C)nc2C(F)(F)F)cc1,7.65%
16,Cc1ccc(C2=NN(C3=NN=C(N)Cc4ncnn43)C(O)(C(F)(F)F)C2)cc1 (centres unmarked),18.8%
17,CCOC(=O)C(=Nc1ccccc1)NO,7.76%
18,CCOC(=O)C1CCCN(c2c(NCCc3ccc(Cl)cc3)c(=O)c2=O)C1 (centres unmarked),-13.6%
19,Cc1ccccc1CS(=O)(=O)c1nnc([C@H](Cc2ccccc2)NC(=O)OC(C)(C)C)o1,-10.2%
20,COC(=O)C1C2C=CC3(CN(C(C)C)C(=O)C13)O2 (centres unmarked),12.3%
21,CCN(CC)S(=O)(=O)c1ccc(C(=O)NC2CN3CCC2CC3)cc1 (centres unmarked),25.6%
22,Cc1cccc(N/C(N)=N/c2nc(C(F)(F)F)cc(C(F)(F)F)n2)c1,15.6%
23,CNC(=O)c1ccccc1S(=O)(=O)c1ccccc1C#N,11.6%

row,SMILES,"hERG current change (%, negative = inhibition) at 10uM"
1,COc1ccc(/C=C/C(=O)NC2CCCCCC2)cc1S(=O)(=O)N1CCOCC1,-19.4%
2,Cc1nn(C)c(C(=O)Nc2ccc(S(=O)(=O)NC34CC5CC(CC(C5)C3)C4)cc2)c1Br,9.77%
3,COc1ccc(NC(=O)CCC(=O)N/N=C/c2ccc([N+](=O)[O-])s2)cc1,-8.54%
4,CN(CC(=O)Nc1cccc(F)c1)CC(=O)Nc1ccccc1Oc1ccccc1.O=C(O)C(=O)O,-25.4%
5,Cn1c(=N)c(S(=O)(=O)c2ccccc2)cc2c(=O)n3ccccc3nc21,-4.58%
6,CCc1ccccc1Nc1nc(N)nc(CSCC(=O)Nc2ccc(C)c(C)c2)n1,-36.8%
7,O=S(=O)(c1ccc2nc(-c3ccccc3)[nH]c2c1)N1CCN(c2cccc(Cl)c2)CC1,15.3%
8,Clc1ccccc1/C=C/c1nc(-c2cccnc2)no1,6.16%
9,COc1ccc(C(CNC(=O)c2ccccc2SC)N(C)C)cc1 (centres unmarked),2.02%
10,O=c1c2ccccc2nc2ccc(NCc3ccco3)nn12,-43.8%
11,Cc1ccc(Nc2cc(C)nc(-c3ccccc3)n2)cc1,-1.86%
12,O=C(CCNS(=O)(=O)c1c(Cl)cccc1Cl)OCC(=O)c1ccccc1,-1.75%
13,COc1cc(OC)nc(NC(=O)COC(=O)C2CCCCC2)n1,-0.806%
14,COc1ccc(OC2OC3COC(C)(C)OC3C(O)C2NC(C)=O)cc1 (centres unmarked),5.2%
15,Cc1ccc(Cn2nnc3c(=O)[nH]c(C4CCCN(S(=O)(=O)c5ccccc5)C4)nc32)cc1 (centres unmarked),-2.74%
16,Nc1nc(SCCC(F)=C(F)F)n[nH]1,-21%
17,COc1ccc(NC(=O)C2CCCN(S(=O)(=O)c3c(C)[nH]c(=O)[nH]c3=O)C2)cc1 (centres unmarked),-10.9%
18,COc1ccc(-n2ccnc2SCC(=O)NO)cc1,9.62%
19,O=C(/C=C/c1ccc([N+](=O)[O-])cc1)c1cccnc1,-53%
20,CCCNC(=O)CC1Sc2ccccc2NC1=O (centres unmarked),9.03%
21,CCOc1ccc(NC(=O)C2CCN(S(=O)(=O)c3cccs3)CC2)cc1,7.96%
22,CCc1cccc(CC)c1N(COC)C(=O)Cn1c(C(C)O)nc2ccccc21 (centres unmarked),-7.8%
23,CCOC(=O)c1c(C)c(C(=O)N2CCN(c3cccc(Cl)c3)CC2)c(C)n1C,-23.6%

row,SMILES,"hERG current change (%, negative = inhibition) at 10uM"
1,CCOc1ccc(S(=O)(=O)N(CC(=O)NCc2ccncc2)c2ccc(C)cc2)cc1,-56.5%
2,Cc1cccc(C)c1NC(=O)N1CCC(c2nc3ccccc3o2)CC1,-5.91%
3,COCCC(=O)N1CCC(Oc2ccc(C(=O)N3CCCC(CCCO)C3)cc2)CC1 (centres unmarked),23.6%
4,COCCN(C(=O)c1csnn1)C(C(=O)NC1CCCCC1)c1ccccc1F (centres unmarked),3.83%
5,Cc1ccc(-c2nc3ncccc3o2)cc1NC(=O)CC(C)C,-3.67%
6,CC(C)N(Cc1cnn(C)c1)Cc1nc(-c2ccc(Cl)cc2)no1,3.63%
7,CCN(C1CCCCC1)S(=O)(=O)c1ccc(OC)c(C)c1,-4.2%
8,CCC1CCCCN1C(=O)N[C@@H](CCSC)C(=O)OC (some centres unmarked),-11%
9,CC(/C=N\Nc1nnc2c(n1)[nH]c1c(C)cccc12)=C\c1ccco1,13.1%
10,CN1CN(C)c2cccc3cccc1c23,4.19%
11,O=C(Cn1c(=O)oc2ccccc21)Nc1nnc(N2CCCCCC2)s1,-5.64%
12,c1ccc(CSc2nncn2-c2ccccn2)cc1,-0.388%
13,COc1ccc(CN(C)CC(=O)NC(=O)NC2CCCCC2)cc1,-20.4%
14,O=C(COc1cc2oc(=O)c3c(c2cc1Cl)CCCC3)N1C[C@H]2C[C@@H](C1)c1cccc(=O)n1C2,-36.7%
15,O=C(O)CNC(=S)N(Cc1ccccc1)Cc1cccs1,34%
16,CN(CC(=O)Nc1ccccc1N1CCOCC1)CC(=O)Nc1ccc(F)c(F)c1F,8.1%
17,Cc1nc2ccccn2c1C(=O)NCC(C)C,4.62%
18,NNC(=S)NC1CCCCC1,31.7%
19,CCc1ccc2nc(NC(=O)CCCc3cccs3)sc2c1,5.25%
20,NNc1nnc(-c2ccccc2)c(-c2ccccc2)n1,-2.13%
21,COc1ccc(CCn2c([S-])nc3ccccc3c2=O)cc1.[Na+],20.1%
22,O=C(CCN1C(=O)/C(=C\c2cccs2)SC1=S)Nc1nccs1,10%
23,COc1ccc(CNc2nc(SCc3cc(=O)n4cc(Cl)ccc4n3)nc3ccccc23)cc1,-44%

row,SMILES,"hERG current change (%, negative = inhibition) at 10uM"
1,Brc1ccc(-c2nnc(-c3ccccc3)c(N3CCSCC3)n2)cc1,4.62%
2,CC(C)(C)c1ccc(OCCC(=O)Nc2cccc(S(=O)(=O)N3CCCCC3)c2)cc1,16.4%
3,CC(C)OC(=O)NS(=O)(=O)c1cccc([N+](=O)[O-])c1,13.7%
4,CCOC(=O)c1ccoc1CSCc1ccc(C(=O)OC)o1,5.24%
5,Cl.O=C(CCN1CCCCC1)c1ccc2c(c1)OCCO2,4.82%
6,Cc1cccnc1NC(=O)CCCN1C(=O)c2ccccc2C1=O,3.22%
7,COc1cc(C(=O)N2CCC(n3c(C)nc4cc(F)ccc43)CC2)cc(OC)c1OC,-8.07%
8,CCOCCCNC(=O)C(c1ccccc1)N(Cc1ccc2c(c1)OCO2)C(=O)c1ccccc1O (centres unmarked),2.92%
9,CC(=O)c1cccc(NC(=O)Cn2nc(-c3ccccc3Cl)ccc2=O)c1,-1.1%
10,Cc1ccc(N2C(=O)CSC2c2ccc3c(c2)OCO3)cc1 (centres unmarked),1.2%
11,Cc1cnc(NC(=O)CSc2nnc(-c3ccccc3)n2Cc2ccccc2)s1,0.896%
12,Cc1ccnc(NS(=O)(=O)c2ccc(NC(=O)CCS(=O)(=O)c3ccccc3)cc2)n1,27.6%
13,CSc1cccc(NC(=O)c2sc3nc4n(c(=O)c3c2C)CCC4)c1,-24.6%
14,Cc1ccc(-c2csc(=Nc3cccnc3)n2CCCn2ccnc2)cc1C,-70.2%
15,O=C1CCCC2=C1C(c1ccc(Br)cc1)c1c([nH]c(=S)[nH]c1=O)N2 (centres unmarked),-11.4%
16,O=C(Nc1cccc(F)c1)c1ccc2c(c1)OCO2,12.3%
17,Cc1[nH]c(-c2ccc(F)cc2)cc1C(=O)N1CCN(c2ccccc2F)CC1,-70.3%
18,Cc1ccc(OCCCCCN2CCOCC2)c(Cl)c1,-15.3%
19,O=C(NC(=S)Nc1ccc(Br)c(Cl)c1)C1CC1,4.33%
20,O=C(Nc1ccccc1C(=O)NC(Cc1c[nH]c2ccccc12)C(=O)O)c1ccccc1 (centres unmarked),7.09%
